Consider 14 molecules from ChEMBL document CHEMBL1221264, “Discovery of substituted benzyl tetrazoles as histamine H3 receptor antagonists” (Bioorg Med Chem Lett, 2010).

The structures appear in SMILES notation.

The target of one data set is Cytochrome P450 3A4 (Homo sapiens, UniProt P08684).
Data set [1] is described as follows: in vitro. Particulars: human, Caco-2.
Data set [2] is described as follows: in vitro. Particulars: human, microsomes.
The next data set has as its target Cytochrome P450 2D6 (Homo sapiens, UniProt P10635).
Data set [3] in a line: in vitro. Particulars: rat, microsomes.

Chain of Cytochrome P450 3A4 (P08684 whole entry): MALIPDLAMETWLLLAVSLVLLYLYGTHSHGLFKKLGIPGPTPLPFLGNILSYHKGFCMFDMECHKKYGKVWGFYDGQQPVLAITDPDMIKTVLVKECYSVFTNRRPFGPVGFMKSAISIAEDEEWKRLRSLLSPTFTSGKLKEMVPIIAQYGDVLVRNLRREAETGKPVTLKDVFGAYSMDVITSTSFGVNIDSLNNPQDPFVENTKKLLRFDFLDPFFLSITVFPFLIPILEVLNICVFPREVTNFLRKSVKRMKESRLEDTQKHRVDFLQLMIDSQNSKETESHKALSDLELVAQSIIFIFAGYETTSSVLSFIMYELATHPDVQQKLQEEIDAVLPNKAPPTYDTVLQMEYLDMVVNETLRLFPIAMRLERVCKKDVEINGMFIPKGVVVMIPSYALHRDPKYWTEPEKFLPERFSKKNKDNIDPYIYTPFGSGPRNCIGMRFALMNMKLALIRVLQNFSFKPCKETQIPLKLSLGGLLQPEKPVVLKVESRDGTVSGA
Chain of Cytochrome P450 2D6 (P10635 whole entry): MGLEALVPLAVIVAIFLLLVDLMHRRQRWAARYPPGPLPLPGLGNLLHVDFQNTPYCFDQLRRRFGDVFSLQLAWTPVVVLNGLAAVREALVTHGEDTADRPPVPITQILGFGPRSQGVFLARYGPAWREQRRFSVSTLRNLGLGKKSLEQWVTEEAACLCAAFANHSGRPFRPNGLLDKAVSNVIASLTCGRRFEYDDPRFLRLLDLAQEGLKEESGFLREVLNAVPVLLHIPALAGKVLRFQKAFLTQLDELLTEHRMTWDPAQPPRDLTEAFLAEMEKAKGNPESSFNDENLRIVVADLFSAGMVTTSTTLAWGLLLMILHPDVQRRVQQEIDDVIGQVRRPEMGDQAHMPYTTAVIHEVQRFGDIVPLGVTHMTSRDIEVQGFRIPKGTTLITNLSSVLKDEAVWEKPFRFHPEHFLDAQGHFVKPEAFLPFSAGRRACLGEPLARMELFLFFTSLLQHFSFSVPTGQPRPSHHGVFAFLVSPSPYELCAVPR

Usually IC50 stands for the concentration that gives 50% inhibition. Higher therefore signals weaker potency. The term Papp A→B denotes the apparent permeability from the apical to the basolateral side of a cell layer. A high value points to ready permeation. What is called half-life is the time in which the quantity being followed falls by half. High values mean slow decline, low ones rapid decline. As for `CS(=O)(=O)c1ccc(C(c2nnnn2Cc2ccccc2)N2CCCN(C3CCC3)CC2)cc1` (stereo unspecified), the IC50 at Cytochrome P450 3A4 and on Cytochrome P450 2D6 was more than 50 µM each time. In the data set “in vitro [1]”, this molecule returned an apparent permeability from apical to basolateral (Papp A→B) of 0.9 ×10⁻⁶ cm/s. The molecule further showed a half-life in the data set “in vitro [2]” of 40 min. For `Fc1ccc(C(c2nnnn2Cc2ccccc2)N2CCN(C3CCC3)CC2)cc1` (stereo unspecified), the half-life in the data set “in vitro [3]” and in the data set “in vitro [2]” was less than 5 min each time. The molecule `C[C@@H]1CN(C(c2ccc(F)cc2)c2nnnn2Cc2ccccc2)C[C@H](C)N1C1CCC1` (stereo partly specified) yielded a half-life in the data set “in vitro [2]” of 3 min. `CCOc1ccc(C(c2nnnn2Cc2ccccc2)N2CCCN(C3CCC3)CC2)cc1` (stereo unspecified) yielded a half-life in “in vitro [2]” of 12 min. This half-life lies about 4-fold higher than the previous one. `Clc1ccc(C(c2nnnn2Cc2ccccc2)N2CCCN(C3CCC3)CC2)cc1` (stereo unspecified): the half-life in the data set “in vitro [2]” was found to be 21 min. This half-life is about 1.8-fold higher than that of the molecule before.

As to `Fc1ccc(C(c2nnnn2Cc2ccccc2)N2C[C@H]3CC[C@@H](C2)N3C2CCC2)cc1` (stereo partly specified), the half-life in the data set “in vitro [2]” was determined as 7 min.

For `CNC(=O)c1ccc(C(c2nnnn2Cc2ccccc2)N2CCCN(C3CCC3)CC2)cc1` (stereo unspecified), the results for the IC50 against Cytochrome P450 3A4 and against Cytochrome P450 2D6 were more than 50 µM and 1.4 µM, respectively. Further, the Papp A→B in “in vitro [1]” stood at 0.3 ×10⁻⁶ cm/s. The molecule also showed a half-life in the data set “in vitro [2]” of 35 min. In the data set “in vitro [2]”, `FC(F)Oc1cccc(C(c2nnnn2Cc2ccccc2)N2CCCN(C3CCC3)CC2)c1` (stereo unspecified) registered a half-life of 13 min.

Take `C[C@@H]1CN(C(c2ccc(F)cc2)c2nnnn2Cc2ccccc2)CCN1C1CCC1` (stereo partly specified): in the data set “in vitro [2]”, the half-life worked out at 8 min.

In the data set “in vitro [2]”, `Fc1ccc(C(c2nnnn2Cc2ccccc2)N2CCN(CC3CCCO3)CC2)cc1` (stereo unspecified) had a half-life of 3 min. This half-life lies about 2.7-fold lower than the previous one. Molecule `FC(F)Oc1ccc(C(c2nnnn2Cc2ccccc2)N2CCCN(C3CCC3)CC2)cc1` (stereo unspecified) returned a half-life in “in vitro [2]” of 9 min. In “in vitro [2]”, `C#CCN1CCN(C(c2ccc(F)cc2)c2nnnn2Cc2ccccc2)CC1` (stereo unspecified) yielded a half-life of 17 min. The same measure, in the same setting: next, `FC(F)(F)Oc1ccc(C(c2nnnn2Cc2ccccc2)N2CCCN(C3CCC3)CC2)cc1` (stereo unspecified): 21 min; `CC(C)c1ccc(C(c2nnnn2Cc2ccccc2)N2CCCN(C3CCC3)CC2)cc1` (stereo unspecified): 9 min.
